Test results from PubChem BioAssay AID1460 (National Center for Advancing Translational Sciences (NCATS), 2008).
Hit rate of the full screen: of about 270,000 compounds, about 5,800 (2.1%) were called active. Inconclusive means that the source gave no clear call. Such entries were picked first, then a sample of the others. Calls follow the shape of the dose curve; as a rule, active = well fitted inhibition curve with a large enough effect; inconclusive = small, poorly fitted or top-dose-only effect; inactive = flat fitted curve, though single readings scatter. Where the call is inconclusive, the potency comes from a doubtful curve fit.

Molecular target: Microtubule-associated protein tau (Homo sapiens) (UniProt P10636)
Assay: qHTS for Inhibitors of Tau Fibril Formation, Thioflavin T Binding; also: nearly all actives have a fitted effect of over 55% in size
Settings: recombinant tau K18 P301L (four-repeat tau fragment), heparin-induced fibrillization, ThT fluorescence; series mostly up to 57.4 µM; activity, negative = inhibition: at the top concentration
How it was run: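 Heparin-induced (20 uM) aggregation of recombinant human K18 P301L tau, 15 uM unlabeled with 0.24 uM labeled, pH 7 acetate buffer, 6 hr at 37 C with compound. Fibrils quantified by 30 uM ThT fluorescence after 1 hr ambient incubation.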
% is scaled to controls: 0 for no effect and ±100 for the full control effect; potency is read from the fitted curve at half-maximal effect; tags tell the direction and shape of the fitted curve.

Chain of UniProt P10636 (P10636 whole entry, looked up): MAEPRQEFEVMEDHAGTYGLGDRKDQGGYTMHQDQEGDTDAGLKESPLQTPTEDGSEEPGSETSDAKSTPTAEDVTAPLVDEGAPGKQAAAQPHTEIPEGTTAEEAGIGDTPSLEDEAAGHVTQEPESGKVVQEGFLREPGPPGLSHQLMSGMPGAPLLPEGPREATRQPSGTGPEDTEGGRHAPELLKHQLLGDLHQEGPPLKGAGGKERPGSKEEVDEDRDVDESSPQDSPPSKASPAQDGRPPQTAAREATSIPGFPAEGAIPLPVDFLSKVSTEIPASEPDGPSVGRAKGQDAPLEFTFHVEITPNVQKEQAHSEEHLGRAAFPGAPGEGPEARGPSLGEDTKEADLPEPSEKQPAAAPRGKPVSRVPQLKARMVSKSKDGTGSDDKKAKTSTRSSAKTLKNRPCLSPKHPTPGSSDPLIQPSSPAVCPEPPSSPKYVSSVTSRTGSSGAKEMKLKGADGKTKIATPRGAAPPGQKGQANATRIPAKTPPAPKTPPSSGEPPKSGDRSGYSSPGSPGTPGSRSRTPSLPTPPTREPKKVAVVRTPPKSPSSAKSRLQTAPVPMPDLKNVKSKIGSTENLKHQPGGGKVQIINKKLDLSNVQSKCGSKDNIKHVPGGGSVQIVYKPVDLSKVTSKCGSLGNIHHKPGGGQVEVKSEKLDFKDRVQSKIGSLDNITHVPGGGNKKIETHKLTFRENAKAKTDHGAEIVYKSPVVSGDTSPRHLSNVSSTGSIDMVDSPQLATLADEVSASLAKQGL

Question: With `Cc1ccccc1Nc1nnc(SCc2cc(=O)n3ccsc3n2)s1` as the compound, how does the Potency read?
Answer: inconclusive: 11.2 µM [inhibitor, partial curve]

Question: `COc1cccc(/C=N/Nc2ncc(C(F)(F)F)cc2Cl)c1O` was tested. Which Potency did it give?
Answer: inconclusive: 6.31 µM [inhibitor, partial curve]

Question: For `Cc1ccc(C)c(Nc2nn3c(=O)c4ccc(C(=O)NCc5cccs5)cc4nc3s2)c1`, which Potency is on record?
Answer: inconclusive: 39.8 µM [activator, single point]

Question: Which “activity, negative = inhibition” value does the source give for `O=C(CSc1nc2ccccc2nc1SCC(=O)N1CCCCC1)N1CCCCC1` here?
Answer: inactive: -6.85%

Question: With `N#C/C(=C\c1ccc(Cl)cc1)c1nc(-c2cc3c(ccc4ccccc43)oc2=O)cs1` as the compound, how does the “activity, negative = inhibition” value read?
Answer: inactive: -3.68%

Question: `CCN(CC)CCN(C(=O)CN1C(=O)CCC1=O)c1nc2cc3c(cc2s1)OCO3` was tested. Which “activity, negative = inhibition” value did it give?
Answer: inactive: -5.38%

Question: `CCOC(=O)c1sc(=NC(=O)c2ccc(OC)c(OC)c2)n(C)c1C` was tested. Which Potency did it give?
Answer: inconclusive: 0.562 µM [inhibitor, full curve]

Question: `Cc1cc([N+](=O)[O-])nn1CCCC(=O)Nc1cc(Oc2ccc(F)cc2)cc([N+](=O)[O-])c1` was tested. Which “activity, negative = inhibition” value did it give?
Answer: inactive: -4.85%

Question: With `Cc1ccc(C2(C)NC(=O)N(CCOc3ccccc3)C2=O)cc1` (stereo unspecified) as the compound, how does the “activity, negative = inhibition” value read?
Answer: inactive: -5.5%

Question: How did the Potency turn out when `Cc1ccc(C2=C/C(=C/c3cccnc3)C(=O)O2)c(C)c1` was run?
Answer: inconclusive: 20 µM [inhibitor, partial curve]

Question: How did the Potency turn out when `N#Cc1ccccc1NC(=O)C1SC(=Nc2ccccc2)C(C(=O)Nc2ccc(Cl)cc2)=C1N` (stereo unspecified) was run?
Answer: inconclusive: 10 µM [inhibitor, partial curve]

Question: How did the Potency turn out when `CCOC(=O)c1c(Cc2ccc(Cl)cc2)c[nH]c1C` was run?
Answer: inconclusive: 28.2 µM [inhibitor, single point]

Question: With `C/C(=N\NC(=O)c1cc(C)oc1C)c1ccc2c(c1)OCO2` as the compound, how does the Potency read?
Answer: inconclusive: 11.2 µM [inhibitor, partial curve]

Question: Which Potency does the source give for `CC(C)(C)C(=O)Cn1c(=N)n(Cc2ccccc2)c2ccccc21` here?
Answer: inconclusive: 39.8 µM [inhibitor, single point]

Question: Which “activity, negative = inhibition” value does the source give for `Cc1c(C(=O)N2CCCCC2)sc(NC(=O)C(C)C)c1C#N` here?
Answer: inactive: 5.13%

Question: With `O=C(/C=C\c1ccc2c(c1)OCO2)c1ccc(F)cc1` as the compound, how does the Potency read?
Answer: inconclusive: 0.0355 µM [inhibitor, full curve, poor fit]

Question: With `CNC(=O)C1CCC(Cn2c(=O)c3sccc3n(CC(=O)NCc3ccc(F)cc3)c2=O)CC1` (stereo unspecified) as the compound, how does the “activity, negative = inhibition” value read?
Answer: inactive: -2.16%

Question: `COc1ccc(Cn2nnnc2C(C(C)C)N2CCN(c3ccccc3OC)CC2)cc1` (stereo unspecified) was tested. Which Potency did it give?
Answer: inconclusive: 15.8 µM [inhibitor, partial curve]

Question: For `CCCn1c(CC)nc([N+](=O)[O-])c1Sc1ccc(C)cc1`, which Potency is on record?
Answer: inconclusive: 22.4 µM [inhibitor, partial curve]

Question: Which Potency does the source give for `CC(=O)C1=NN(c2ccccc2)C(c2cccs2)N1c1ccc(N(C)C)cc1` (stereo unspecified) here?
Answer: inconclusive: 20 µM [inhibitor, partial curve]

Question: With `NS(=O)(=O)c1ccc(NC(=O)COC(=O)c2cc(Cl)ccc2[N+](=O)[O-])cc1` as the compound, how does the Potency read?
Answer: inconclusive: 17.8 µM [inhibitor, single point]

Question: `O=c1c(N2CCc3ccccc3C2)csc2ccccc12` was tested. Which Potency did it give?
Answer: active: 14.1 µM

Question: How did the “activity, negative = inhibition” value turn out when `O=C1c2ccccc2CN1CCNC(=S)NC1CCCCC1` was run?
Answer: inactive: -4.99%

Question: With `COC(=O)c1c(NC(=O)CN2CCCc3ccccc32)sc(C)c1C` as the compound, how does the “activity, negative = inhibition” value read?
Answer: inactive: -9.62%

Question: Which Potency does the source give for `CC(=O)Nc1ccc(NC(=O)c2oc3ccc4c(c3c2C)C(=O)CC(C)(C)O4)cc1` here?
Answer: inconclusive: 8.91 µM [inhibitor, partial curve]

Question: With `CN1CCN(S(=O)(=O)c2ccc(NC(=S)NC(=O)C(C)(C)C)cc2)CC1` as the compound, how does the “activity, negative = inhibition” value read?
Answer: inactive: -6.94%

Question: `CN(C)c1ccc(C2NCC(CCl)O2)cc1` (stereo unspecified) was tested. Which “activity, negative = inhibition” value did it give?
Answer: inactive: -13.1%

Question: How did the Potency turn out when `Cc1ccc(NC2Sc3ccccc3NC2=O)cc1` (stereo unspecified) was run?
Answer: active: 15.8 µM

Question: `COC(=O)CSc1nsc(SCC(=O)OC)c1C#N` was tested. Which Potency did it give?
Answer: inconclusive: 12.6 µM [inhibitor, partial curve]

Question: Which Potency does the source give for `COC(=O)c1c(C)oc2ccc(N(C(=O)c3ccncc3)S(=O)(=O)c3ccc(C)cc3)cc12` here?
Answer: inconclusive: 31.6 µM [inhibitor, single point]

Question: With `O=C(O)c1ccn2c(C(=O)c3ccc(Cl)cc3)c(-c3ccccc3)cc2c1` as the compound, how does the Potency read?
Answer: inconclusive: 20 µM [inhibitor, partial curve]

Question: Which Potency does the source give for `COc1ccc(Nc2nnc(SCC(=O)Nc3ccc4[nH]c(=O)[nH]c4c3)s2)cc1` here?
Answer: inconclusive: 2.82 µM [inhibitor, full curve]

Question: `CC(=O)C1=NN(c2ccccc2)C(c2ccc3c(c2)OCO3)N1c1ccc(N2CCOCC2)cc1` (stereo unspecified) was tested. Which Potency did it give?
Answer: inconclusive: 28.2 µM [inhibitor, partial curve, poor fit]

Question: Which Potency does the source give for `O=C(CSc1nc2ccc(Cl)cc2[nH]1)NCc1ccco1` here?
Answer: inconclusive: 22.4 µM [inhibitor, partial curve]

Question: How did the Potency turn out when `CO/N=C/c1ccc(N2CCN(C(=O)c3ccc(F)cc3)CC2)c([N+](=O)[O-])c1` was run?
Answer: inconclusive: 17.8 µM [inhibitor, partial curve]

Question: `Cn1c(NCc2ccc(Cl)cc2)nc2ccccc21` was tested. Which “activity, negative = inhibition” value did it give?
Answer: inactive: 5.31%

Question: How did the “activity, negative = inhibition” value turn out when `O=Cc1cn(-c2ccccc2)nc1-c1cccnc1` was run?
Answer: inactive: 3.05%

Question: Which Potency does the source give for `CC(=O)Nc1ccccc1/C=C/c1ccc2c(C)ccc(O)c2n1` here?
Answer: inconclusive: 6.31 µM [inhibitor, partial curve]

Question: `O=[N+]([O-])/C=C/c1cn(Cc2ccc(Cl)cc2)c2ccccc12` was tested. Which Potency did it give?
Answer: inconclusive: 14.1 µM [inhibitor, partial curve]

Question: For `CCc1noc(-c2ccc(N3CCCCC3C)c([N+](=O)[O-])c2)n1` (stereo unspecified), which “activity, negative = inhibition” value is on record?
Answer: inactive: 1.39%

Question: Which Potency does the source give for `O=C(Nc1nnc(S(=O)(=O)Nc2ccccc2)s1)c1ccccc1Cl` here?
Answer: inconclusive: 8.91 µM [inhibitor, partial curve]

Question: `COc1ccc(CNC(=O)CN(Cc2ccccc2)S(=O)(=O)c2ccc(Cl)cc2)cc1` was tested. Which “activity, negative = inhibition” value did it give?
Answer: inactive: -18.3%

Question: How did the Potency turn out when `C=CCn1c(=O)c2ccccc2n2c(SC(C)C(=O)Nc3nc(-c4ccccc4)cs3)nnc12` (stereo unspecified) was run?
Answer: inconclusive: 0.794 µM [inhibitor, partial curve]

Question: For `Cc1cc(C)n(C(=O)c2cc3c(s2)CCCC3)n1`, which “activity, negative = inhibition” value is on record?
Answer: inactive: -7.34%

Question: `Nc1c(C(=O)Nc2ccc(C(=O)O)cc2)sc2nc3c(cc12)CCCC3` was tested. Which Potency did it give?
Answer: inconclusive: 8.91 µM [inhibitor, partial curve]

Question: How did the Potency turn out when `CCOC(=O)c1ccc2c(c1)nc(SCc1cn3ccsc3n1)n2CC` was run?
Answer: inconclusive: 28.2 µM [inhibitor, partial curve]

Question: With `Cc1ccc(NC(=O)CN2C(=O)C3(SCC(=O)N3c3cccc(Cl)c3)c3ccccc32)cc1C` (stereo unspecified) as the compound, how does the “activity, negative = inhibition” value read?
Answer: inactive: 2.22%

Question: For `O=C(Cn1nc(C(F)F)cc1C(F)F)NNC(=S)Nc1ccc([N+](=O)[O-])cc1`, which Potency is on record?
Answer: inconclusive: 10 µM [inhibitor, partial curve]

Question: `CCOC(=O)c1c(S(=O)(=O)NCC(=O)NCc2cccc(C)c2)c(C)n(C)c1C` was tested. Which “activity, negative = inhibition” value did it give?
Answer: inactive: -7.15%

Question: How did the “activity, negative = inhibition” value turn out when `Cc1ccc(-c2nc3c(c(SCC(=O)Nc4ccccc4Cl)n2)Cc2c(CO)cnc(C)c2O3)cc1` was run?
Answer: inactive: 2.25%

Question: How did the Potency turn out when `O=C(N/N=C/c1ccccn1)c1sc2ccccc2c1Cl` was run?
Answer: inconclusive: 10 µM [inhibitor, partial curve]

Question: With `Cc1ccc(C)c(N(CC(N)=O)S(C)(=O)=O)c1` as the compound, how does the “activity, negative = inhibition” value read?
Answer: inactive: 0.738%

Question: How did the Potency turn out when `Cc1cc(N)ccc1N=Nc1c(C)n(C)n(-c2ccccc2)c1=O` was run?
Answer: inconclusive: 15.8 µM [inhibitor, partial curve]

Question: With `CCOC(=O)c1sc2cc([N+](=O)[O-])cc(SCC(C)C)c2c1N` as the compound, how does the Potency read?
Answer: inconclusive: 8.91 µM [inhibitor, partial curve]

Question: `COc1ccc(N=c2scc(-c3ccc(OC)cc3)n2CCO)cc1` was tested. Which Potency did it give?
Answer: inconclusive: 11.2 µM [inhibitor, partial curve]

Question: How did the Potency turn out when `CCOc1cc(C2Nc3cccc4cccc(c34)N2)ccc1O` was run?
Answer: active: 6.31 µM

Question: `CCc1ccc2c(CN(CC)Cc3nc4ccccc4c(=O)[nH]3)cc(=O)oc2c1` was tested. Which Potency did it give?
Answer: inconclusive: 39.8 µM [inhibitor, single point]

Question: For `Cc1ccc(/C=N/c2sc3c(c2C(N)=O)CCCC3)o1`, which Potency is on record?
Answer: inconclusive: 2.24 µM [inhibitor, full curve]

Question: How did the Potency turn out when `Cc1cc(=O)oc2cc(OC(=O)CCCCCN3C(=O)c4ccccc4C3=O)ccc12` was run?
Answer: inconclusive: 28.2 µM [inhibitor, partial curve]

Question: For `CCC(=O)Nc1nnc(CCc2ccccc2)s1`, which “activity, negative = inhibition” value is on record?
Answer: inactive: -1.32%

Question: With `CCOc1cc(CNc2ccc3c(c2)OCCO3)cc(Br)c1OCC` as the compound, how does the Potency read?
Answer: inconclusive: 11.2 µM [inhibitor, partial curve]

Question: For `CN1CCN(C(c2ccccn2)c2cc(Cl)c3cccnc3c2O)CC1` (stereo unspecified), which Potency is on record?
Answer: inconclusive: 8.91 µM [inhibitor, partial curve]

Question: How did the Potency turn out when `CC(=O)Nc1ccc(NC(=O)CCCSc2nc3ccccc3s2)cc1` was run?
Answer: inconclusive: 12.6 µM [inhibitor, partial curve, poor fit]

Question: How did the Potency turn out when `O=C/C=C/c1ccc(O)cc1` was run?
Answer: inconclusive: 7.08 µM [inhibitor, single point]

Question: Which Potency does the source give for `CCN(CC)c1ccc(/C=C2\C(=O)N(c3nnc(C)c(=O)[nH]3)N=C2C)cc1` here?
Answer: active: 7.94 µM

Question: For `O=C(/C=C/c1ccccc1)CC(O)(c1ccccc1)C(F)(F)F` (stereo unspecified), which Potency is on record?
Answer: inconclusive: 28.2 µM [inhibitor, partial curve]

Question: For `Cc1onc(-c2c(F)cccc2Cl)c1C(=O)N1CCc2ccccc21`, which Potency is on record?
Answer: inconclusive: 0.126 µM [inhibitor, full curve, poor fit]

Question: `Cc1cccc(N=Nc2c(O)[nH]c3ccc(F)cc23)c1` was tested. Which Potency did it give?
Answer: inconclusive: 2.51 µM [inhibitor, full curve]

Question: `CCOC(=O)c1c2c(c(=S)n(-c3ccccc3)c1N)CCC2` was tested. Which Potency did it give?
Answer: active: 25.1 µM

Question: How did the Potency turn out when `COc1ccc(Br)cc1C1Sc2ccccc2NC2=C1C(=O)c1ccccc12` (stereo unspecified) was run?
Answer: inconclusive: 8.91 µM [inhibitor, partial curve]

Question: `CC1(C)Cc2c(C#N)c(SCc3nc4ccccc4[nH]3)nc(N3CCOCC3)c2CO1` was tested. Which Potency did it give?
Answer: inconclusive: 28.2 µM [inhibitor, partial curve]
